{"source": "the supplement of paper PMC8728848", "binders": {"B1": {"name": "GNAT (Pseudomonas aeruginosa), Q9HV14 (protein)", "chain": "MQLSHRPAETGDLETVAGFPQDRDELFYCYPKAIWPFSVAQLAAAIAERRGSTVAVHDGQVLGFANFYQWQHGDFCALGNMMVAPAARGLGVARYLIGVMENLAREQYKARLMKISCFNANAAGLLLYTQLGYQPRAIAERHDPDGRRVALIQMDKPLEP"}}, "test_in_all_cases": "glycan array binding signal (z-score within array); higher = stronger binding", "settings_in_all_cases": "glycan notation: IUPAC condensed, linker removed", "key": {"[1]": {"target": "Fuc(a1-2)Gal", "in_short": "(§1)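 The Consortium for Functional Glycomics database supplied 3228 glycan arrays, of which those lacking an available protein sequence were dropped. The binding signal, a within-array Z-score, was averaged across arrays of the same protein sequence and across linkers. Negative scores can be read as non-binding.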"}, "[2]": {"target": "Fuc(a1-2)Gal(b1-3)GalNAc", "in_short": "as §1"}, "[3]": {"target": "Fuc(a1-2)Gal(b1-3)GalNAc(a1-3)[Fuc(a1-2)]Gal(b1-4)Glc", "in_short": "as §1"}, "[4]": {"target": "Fuc(a1-2)Gal(b1-3)GalNAc(a1-3)[Fuc(a1-2)]Gal(b1-4)GlcNAc", "in_short": "as §1"}, "[5]": {"target": "Fuc(a1-2)Gal(b1-3)GalNAc(b1-3)Gal", "in_short": "as §1"}, "[6]": {"target": "Fuc(a1-2)Gal(b1-3)GalNAc(b1-3)Gal(a1-4)Gal(b1-4)Glc", "in_short": "as §1"}, "[7]": {"target": "Fuc(a1-2)Gal(b1-3)GalNAc(b1-4)[Neu5Ac(a2-3)]Gal(b1-4)Glc", "in_short": "as §1"}, "[8]": {"target": "Fuc(a1-2)Gal(b1-3)GlcNAc", "in_short": "as §1"}, "[9]": {"target": "Fuc(a1-2)Gal(b1-3)GlcNAc(b1-2)Man(a1-3)[Fuc(a1-2)Gal(b1-3)GlcNAc(b1-2)Man(a1-6)]Man(b1-4)GlcNAc(b1-4)GlcNAc", "in_short": "as §1"}, "[10]": {"target": "Fuc(a1-2)Gal(b1-3)GlcNAc(b1-2)Man(a1-3)[Fuc(a1-2)Gal(b1-3)GlcNAc(b1-2)Man(a1-6)]Man(b1-4)GlcNAc(b1-4)[Fuc(a1-6)]GlcNAc", "in_short": "as §1"}, "[11]": {"target": "Fuc(a1-2)Gal(b1-3)GlcNAc(b1-3)Gal(b1-4)Glc", "in_short": "as §1"}, "[12]": {"target": "Fuc(a1-2)Gal(b1-3)GlcNAc(b1-3)GalNAc", "in_short": "as §1"}, "[13]": {"target": "Fuc(a1-2)Gal(b1-3)GlcNAc(b1-3)[Fuc(a1-3)[Gal(b1-4)]GlcNAc(b1-6)]Gal(b1-4)Glc", "in_short": "as §1"}, "[14]": {"target": "Fuc(a1-2)Gal(b1-3)GlcNAc(b1-3)[Gal(b1-4)GlcNAc(b1-6)]Gal(b1-4)Glc", "in_short": "as §1"}, "[15]": {"target": "Fuc(a1-2)Gal(b1-3)GlcNAc(b1-3)[Neu5Ac(a2-6)Gal(b1-4)GlcNAc(b1-6)]Gal(b1-4)Glc", "in_short": "as §1"}, "[16]": {"target": "Fuc(a1-2)Gal(b1-3)[Fuc(a1-4)]GlcNAc", "in_short": "as §1"}, "[17]": {"target": "Fuc(a1-2)Gal(b1-3)[Fuc(a1-4)]GlcNAc(b1-2)Man(a1-3)[Fuc(a1-2)Gal(b1-3)[Fuc(a1-4)]GlcNAc(b1-2)Man(a1-6)]Man(b1-4)GlcNAc(b1-4)GlcNAc", "in_short": "as §1"}, "[18]": {"target": "Fuc(a1-2)Gal(b1-3)[Fuc(a1-4)]GlcNAc(b1-3)[Fuc(a1-3)[Gal(b1-4)]GlcNAc(b1-6)]Gal(b1-4)Glc", "in_short": "as §1"}, "[19]": {"target": "Fuc(a1-2)Gal(b1-3)[Fuc(a1-4)]GlcNAc(b1-3)[Gal(b1-4)GlcNAc(b1-6)]Gal(b1-4)Glc", "in_short": "as §1"}, "[20]": {"target": "Fuc(a1-2)Gal(b1-4)Glc", "in_short": "as §1"}, "[21]": {"target": "Fuc(a1-2)Gal(b1-4)Glc6S", "in_short": "as §1"}, "[22]": {"target": "Fuc(a1-2)Gal(b1-4)GlcNAc", "in_short": "as §1"}, "[23]": {"target": "Fuc(a1-2)Gal(b1-4)GlcNAc(b1-2)Man(a1-3)[Fuc(a1-2)Gal(b1-4)GlcNAc(b1-2)Man(a1-6)]Man(b1-4)GlcNAc(b1-4)GlcNAc", "in_short": "as §1"}, "[24]": {"target": "Fuc(a1-2)Gal(b1-4)GlcNAc(b1-2)Man(a1-3)[Fuc(a1-2)Gal(b1-4)GlcNAc(b1-2)Man(a1-6)]Man(b1-4)GlcNAc(b1-4)[Fuc(a1-6)]GlcNAc", "in_short": "as §1"}, "[25]": {"target": "Fuc(a1-2)Gal(b1-4)GlcNAc(b1-2)[Fuc(a1-2)Gal(b1-4)GlcNAc(b1-4)]Man(a1-3)[Fuc(a1-2)Gal(b1-4)GlcNAc(b1-2)Man(a1-6)]Man(b1-4)GlcNAc(b1-4)GlcNAc", "in_short": "as §1"}, "[26]": {"target": "Fuc(a1-2)Gal(b1-4)GlcNAc(b1-3)Gal(b1-4)GlcNAc", "in_short": "as §1"}, "[27]": {"target": "Fuc(a1-2)Gal(b1-4)GlcNAc(b1-3)Gal(b1-4)GlcNAc(b1-3)Gal(b1-4)GlcNAc", "in_short": "as §1"}, "[28]": {"target": "Fuc(a1-2)Gal(b1-4)GlcNAc(b1-3)GalNAc", "in_short": "as §1"}, "[29]": {"target": "Fuc(a1-2)Gal(b1-4)GlcNAc(b1-3)[Fuc(a1-2)Gal(b1-4)GlcNAc(b1-6)]GalNAc", "in_short": "as §1"}, "[30]": {"target": "Fuc(a1-2)Gal(b1-4)GlcNAc6S", "in_short": "as §1"}}, "note": "The list shows a part of the results.", "data": [{"binder": "B1", "values": [{"measurement": "glycan array binding signal (z-score)", "setting": "[1]", "value": -0.436}, {"measurement": "glycan array binding signal (z-score)", "setting": "[2]", "value": -0.402}, {"measurement": "glycan array binding signal (z-score)", "setting": "[3]", "value": -0.404}, {"measurement": "glycan array binding signal (z-score)", "setting": "[4]", "value": -0.451}, {"measurement": "glycan array binding signal (z-score)", "setting": "[5]", "value": -0.267}, {"measurement": "glycan array binding signal (z-score)", "setting": "[6]", "value": -0.309}, {"measurement": "glycan array binding signal (z-score)", "setting": "[7]", "value": -0.412}, {"measurement": "glycan array binding signal (z-score)", "setting": "[8]", "value": -0.4}, {"measurement": "glycan array binding signal (z-score)", "setting": "[9]", "value": -0.307}, {"measurement": "glycan array binding signal (z-score)", "setting": "[10]", "value": -0.406}, {"measurement": "glycan array binding signal (z-score)", "setting": "[11]", "value": -0.447}, {"measurement": "glycan array binding signal (z-score)", "setting": "[12]", "value": -0.347}, {"measurement": "glycan array binding signal (z-score)", "setting": "[13]", "value": -0.441}, {"measurement": "glycan array binding signal (z-score)", "setting": "[14]", "value": -0.366}, {"measurement": "glycan array binding signal (z-score)", "setting": "[15]", "value": -0.205}, {"measurement": "glycan array binding signal (z-score)", "setting": "[16]", "value": -0.365}, {"measurement": "glycan array binding signal (z-score)", "setting": "[17]", "value": 2.54}, {"measurement": "glycan array binding signal (z-score)", "setting": "[18]", "value": -0.247}, {"measurement": "glycan array binding signal (z-score)", "setting": "[19]", "value": -0.016}, {"measurement": "glycan array binding signal (z-score)", "setting": "[20]", "value": -0.339}, {"measurement": "glycan array binding signal (z-score)", "setting": "[21]", "value": -0.303}, {"measurement": "glycan array binding signal (z-score)", "setting": "[22]", "value": -0.363}, {"measurement": "glycan array binding signal (z-score)", "setting": "[23]", "value": -0.246}, {"measurement": "glycan array binding signal (z-score)", "setting": "[24]", "value": -0.349}, {"measurement": "glycan array binding signal (z-score)", "setting": "[25]", "value": -0.191}, {"measurement": "glycan array binding signal (z-score)", "setting": "[26]", "value": -0.45}, {"measurement": "glycan array binding signal (z-score)", "setting": "[27]", "value": -0.403}, {"measurement": "glycan array binding signal (z-score)", "setting": "[28]", "value": -0.406}, {"measurement": "glycan array binding signal (z-score)", "setting": "[29]", "value": 0.212}, {"measurement": "glycan array binding signal (z-score)", "setting": "[30]", "value": -0.301}]}]}
